# Screen size: about 220,000 compounds; about 5,700 (2.6%) were called active. This list was built around the results that the source calls inconclusive (neither active nor inactive); the mix of calls is not that of the screen. Calls come from the whole dose curve; as a rule, active = well fitted inhibition curve with a large enough effect; inconclusive = small, poorly fitted or top-dose-only effect; inactive = no such curve, though single readings can be large or run the other way. A potency beside an inconclusive call is a rough fit, not a confirmed value.
# Molecular target: Lysine-specific demethylase 5B (Homo sapiens) (UniProt Q9UGL1)
# Assay: Primary screen for KDM5B Histone Demethylases FDH-coupled qHTS; note: nearly all actives have a fitted effect of over 70% in size; for activity change, negative = inhibition: 0% is about no effect
# Conditions: FDH-coupled NADH fluorescence (FDH is formaldehyde dehydrogenase); activity change, negative = inhibition: at 57.7 µM (top of the series) unless noted
# How it was run: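 Inhibition is measured as reduced NADH fluorescence generation from FDH coupling to formaldehyde release. Truncated KDM5BΔAP at 200 nM final acts on H3K4me3 peptide (12.5 µM in substrate mix) in pH 7.5 HEPES buffer with Tween-20, 30 min, room temperature.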
# Potency is the fitted concentration of half-maximal effect; tags give direction and shape of the fitted curve.
# UniProt Q9UGL1, sequence (Q9UGL1 whole entry, looked up): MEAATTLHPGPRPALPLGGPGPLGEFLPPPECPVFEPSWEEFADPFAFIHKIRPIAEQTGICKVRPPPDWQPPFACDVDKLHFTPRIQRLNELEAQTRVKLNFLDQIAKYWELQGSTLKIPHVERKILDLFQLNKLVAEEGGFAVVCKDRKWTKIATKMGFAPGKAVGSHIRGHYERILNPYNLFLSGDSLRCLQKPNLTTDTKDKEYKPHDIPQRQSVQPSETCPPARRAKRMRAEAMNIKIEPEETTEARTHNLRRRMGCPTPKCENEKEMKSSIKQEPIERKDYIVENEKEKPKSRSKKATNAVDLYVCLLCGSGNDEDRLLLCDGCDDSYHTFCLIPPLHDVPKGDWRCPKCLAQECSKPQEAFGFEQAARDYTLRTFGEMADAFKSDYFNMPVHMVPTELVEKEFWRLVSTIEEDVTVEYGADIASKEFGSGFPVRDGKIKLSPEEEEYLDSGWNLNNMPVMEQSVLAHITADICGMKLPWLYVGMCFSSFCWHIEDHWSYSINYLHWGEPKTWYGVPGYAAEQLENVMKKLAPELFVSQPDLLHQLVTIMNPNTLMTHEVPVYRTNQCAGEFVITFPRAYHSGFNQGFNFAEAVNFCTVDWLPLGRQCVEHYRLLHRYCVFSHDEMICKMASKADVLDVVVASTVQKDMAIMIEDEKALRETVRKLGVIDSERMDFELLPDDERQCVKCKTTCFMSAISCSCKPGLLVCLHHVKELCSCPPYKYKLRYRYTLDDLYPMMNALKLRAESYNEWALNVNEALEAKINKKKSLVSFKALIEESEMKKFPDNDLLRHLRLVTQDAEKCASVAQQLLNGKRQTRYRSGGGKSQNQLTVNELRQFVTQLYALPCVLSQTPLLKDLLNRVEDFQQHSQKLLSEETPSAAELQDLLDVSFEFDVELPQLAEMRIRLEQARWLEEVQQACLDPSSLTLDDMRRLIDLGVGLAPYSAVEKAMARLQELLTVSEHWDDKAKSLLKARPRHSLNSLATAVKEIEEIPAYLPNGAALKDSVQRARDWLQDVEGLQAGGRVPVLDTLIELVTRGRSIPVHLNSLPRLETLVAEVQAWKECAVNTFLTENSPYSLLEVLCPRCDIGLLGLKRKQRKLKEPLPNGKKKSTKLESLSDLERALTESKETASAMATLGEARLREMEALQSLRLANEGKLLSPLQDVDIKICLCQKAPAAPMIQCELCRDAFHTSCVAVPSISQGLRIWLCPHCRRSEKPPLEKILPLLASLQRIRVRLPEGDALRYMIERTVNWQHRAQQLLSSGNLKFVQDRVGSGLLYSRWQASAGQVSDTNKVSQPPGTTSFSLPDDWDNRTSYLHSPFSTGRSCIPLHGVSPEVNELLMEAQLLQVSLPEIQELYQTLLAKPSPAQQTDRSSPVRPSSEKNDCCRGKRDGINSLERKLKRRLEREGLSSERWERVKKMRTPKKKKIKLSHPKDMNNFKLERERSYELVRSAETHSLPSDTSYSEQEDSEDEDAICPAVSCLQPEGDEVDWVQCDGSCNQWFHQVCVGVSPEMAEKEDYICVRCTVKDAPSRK
Structure (SMILES),Potency,"activity change, negative = inhibition"
Cc1cc2nc(-c3cc(NC(=O)c4cc5ccccc5o4)ccc3Cl)oc2cc1C,"inconclusive: 17.8 µM [inhibitor, partial curve, poor fit]",–
CCc1ccc(NC(=O)CSc2nc3n[nH]c(C)c3c(=N)n2-c2ccccc2C)cc1,"inconclusive: 35.5 µM [inhibitor, partial curve, poor fit]",–
O=C1NCCC[C@@H]1NC(=O)[C@@H]1CN(C(=O)c2cccc(F)c2)CCN1C(=O)c1cccc(F)c1,–,inactive: -1.54%
Cc1cc(SCc2ccc(Cl)cc2)nc2ccccc12,–,inactive: 6.37%
CN1CC2(CCN(C(=O)c3nccn3C)CC2)CC1C(=O)N1CCOCC1 (stereo unspecified),"inconclusive: 22.4 µM [inhibitor, partial curve, poor fit]",–
CCC1(N2CCN(C(=O)c3ccncc3)CC2)CCN(CCC(C)C)C1 (stereo unspecified),"inconclusive: 35.5 µM [inhibitor, partial curve, poor fit]",–
Cc1cc(NC(=O)C(C)C)cc(-c2nc3ncccc3o2)c1O,–,inactive: -14.4%
CN1CCN(c2ccc3nnc(C4CCC4)n3n2)CC1,"inconclusive: 20 µM [inhibitor, partial curve, poor fit]",–
Cc1ccc(S(=O)(=O)N2CCOCC2)cc1NC(=O)COC(=O)c1cc[n+]([O-])cc1,"inconclusive: 20 µM [inhibitor, single point]",–
Cc1ccc2nc(-c3ccc(O)cc3)c(Nc3ccc4c(c3)OCO4)n2c1,"inconclusive: 28.2 µM [inhibitor, partial curve, poor fit]",–
CC(C)CCNc1nc2ccccc2nc1C(C#N)S(=O)(=O)c1ccc(F)cc1 (stereo unspecified),"inconclusive: 20 µM [inhibitor, partial curve, poor fit]",–
N#C/C(=C\c1c(Oc2ccccc2Cl)nc2ccccn2c1=O)C(=O)NC1CCS(=O)(=O)C1 (stereo unspecified),"inconclusive: 28.2 µM [inhibitor, partial curve, poor fit]",–
COc1ccc(/C=N\NC(=O)c2ccccc2F)cc1COc1ccc(F)cc1F,"inconclusive: 28.2 µM [inhibitor, single point]",–
O=C(Nc1nc(-c2ccc(F)c(F)c2)cs1)c1cnccn1,"inconclusive: 35.5 µM [inhibitor, single point]",–
CNC(=O)[C@@H]1C[C@H](Oc2ccccc2)CN1C(=O)c1cc2ccccc2[nH]1,"inconclusive: 22.4 µM [inhibitor, partial curve]",–
N#Cc1cccnc1N1CCN(Cc2ccccc2F)C(CCO)C1 (stereo unspecified),"inconclusive: 25.1 µM [inhibitor, partial curve, poor fit]",–
COc1ccc2cc(C3(C)NC(=O)N(Cc4coc(-c5cccs5)n4)C3=O)ccc2c1 (stereo unspecified),"inconclusive: 39.8 µM [inhibitor, single point]",–
CC(C)c1noc(-c2cccn3c(CNC(=O)Cc4c[nH]c5ccccc45)nnc23)n1,"inconclusive: 31.6 µM [inhibitor, single point]",–
CCOc1ccc(N(CCCCO)C(=S)NC(=O)c2ccc(C)c(Br)c2)cc1,"inconclusive: 31.6 µM [inhibitor, single point]",–
CN(Cc1ccccc1)c1ncnc2c1CCN(C(=O)[C@@H](N)CO)CC2,–,inactive: 2.32%
OC[C@@H]1CNC[C@H]1C1CCN(Cc2ccc(Cl)c(F)c2)CC1,–,inactive: -20.9%
O=C(NCc1ccc(S(=O)(=O)N2CCOCC2)cc1)c1cc(-c2ccncc2)nc2ccccc12,–,inactive: 2.24%

Structure (SMILES),Potency,"activity change, negative = inhibition"
N#C/C(=C/c1cccc(C#N)c1)c1nc2ccccc2[nH]1,"inconclusive: 28.2 µM [inhibitor, single point]",–
Cc1ccc(S(=O)(=O)N2CCCC(CCC(=O)NC3CCS(=O)(=O)C3)C2)cc1 (stereo unspecified),"inconclusive: 14.1 µM [inhibitor, partial curve]",–
CC1(CCCCc2ccccc2)COc2ccc(C(=O)NCCN3CCOCC3)cc2N1 (stereo unspecified),active: 35.5 µM,–
Cc1cc(=O)oc2cc(OCc3ccc(C(=O)OCC(=O)NC(=O)NC(C)(C)C)cc3)ccc12,"inconclusive: 39.8 µM [inhibitor, single point]",–
COc1ccc(/C=C/c2nnc(Cc3ccccc3)o2)cc1,"inconclusive: 25.1 µM [inhibitor, partial curve, poor fit]",–
CC(C)CNC(=O)C1CCc2ncc(-c3ccsc3)n2C1 (stereo unspecified),–,inactive: -19%
COc1ccccc1-c1cnc(NC(=O)c2ccc(Cl)cc2)c2c1CCO2,"inconclusive: 35.5 µM [inhibitor, single point]",–
Cc1ccc2nc(-c3cccnc3)cc(C(=O)NCc3cccs3)c2c1,"inconclusive: 10 µM [inhibitor, partial curve, poor fit]",–
COc1ccc(-c2c[nH]c3c(SCC(=O)Nc4ccc(OC)c(OC)c4)ncnc23)cc1,–,inactive: -2.81%
COc1ccc(/C=C/c2nc(C#N)c(NCCc3ccc(OC)c(OC)c3)o2)cc1OC,"inconclusive: 2.82 µM [inhibitor, full curve, poor fit]",–
COc1ccc(/C=N/O)c(OC)c1,–,inactive: 18.8%
Cc1ccccc1CN1CCC(N2CCCCCC2)CC1,"inconclusive: 31.6 µM [inhibitor, partial curve, poor fit]",–
COc1cc(OC)c(NC(=O)NC(C)c2c(-n3cccc3)sc(C)c2C)cc1Cl (stereo unspecified),"inconclusive: 1.12 µM [inhibitor, full curve, poor fit]",–
CC(=O)CCc1c(C)nc2c(Cl)cccc2c1Cl,–,inactive: 23%
O=C(c1ccco1)N1CCN(Cc2ccccc2Br)CC1,"inconclusive: 2.51 µM [inhibitor, full curve, poor fit]",–
CCC1CCc2nc3sc(C(=O)Nc4ccc(F)cc4F)c(N)c3cc2C1 (stereo unspecified),"inconclusive: 2.82 µM [inhibitor, full curve, poor fit]",–
Cc1cccc(CNC(=O)Nc2ccc(N3CCCCC3)nc2)n1,"inconclusive: 28.2 µM [inhibitor, partial curve, poor fit]",–
N#Cc1nc(-c2cccc(Cl)c2)oc1NCCCN1CCOCC1,"inconclusive: 35.5 µM [inhibitor, partial curve, poor fit]",–
CC(C)(C)c1nc(C(=O)NCc2cccnc2)n2ccncc12,active: 100 µM,–
COc1ccc(C(=O)N2CCC(N3CC4CC(C3)[C@H]3CCCC(=O)N3C4)CC2)cc1F (stereo partly specified),"inconclusive: 22.4 µM [inhibitor, partial curve]",–
COc1ccc(C(=O)CSC#N)cc1,–,inactive: -15.6%
CC(=O)Nc1ccc2oc(-c3ccccc3C)nc2c1,"inconclusive: 12.6 µM [inhibitor, partial curve, poor fit]",–

Structure (SMILES),Potency,"activity change, negative = inhibition"
COc1ccccc1N1CCN(CCC(=O)Nc2cccc(Cl)c2)CC1,"inconclusive: 25.1 µM [inhibitor, single point]",–
Cn1c(=O)cc(OCCCC(=O)Nc2ccc(F)cc2)c2ccccc21,–,inconclusive: -35% [inhibitor]
CCCNC(=O)C[C@@H]1CCN(S(=O)(=O)c2c(C)noc2C)C[C@@H]1CC,–,inactive: 29.3% [at 86.2 µM]
NS(=O)(=O)c1ccc(CCNC(=O)c2cc3n(n2)CC(c2ccc(Cl)cc2)OC3)cc1 (stereo unspecified),–,inactive: -26%
CC(C)Oc1ccc(C(=O)/C(=C\c2cccnc2)c2nc3ccccc3o2)cc1,"inconclusive: 22.4 µM [inhibitor, partial curve, poor fit]",–
COc1cccc(-c2nc(N3CCOCC3)cc3c2CN(C)C3=O)c1,active: 35.5 µM,–
Cc1nc(-c2ccccc2)sc1C(=O)Nc1ccccc1,–,inactive: -0.179%
CCC(C)(C)C1CCC(=NNC(=S)Nc2ccccc2C(F)(F)F)CC1 (stereo unspecified),–,inactive: -20.4%
COC(=O)[C@H](CC(C)C)N(Cc1cn(CC2CCCCC2)nn1)S(=O)(=O)c1ccc(F)cc1Br,"inconclusive: 35.5 µM [inhibitor, partial curve, poor fit]",–
O=C(Cc1cccc([N+](=O)[O-])c1)NCc1nc2cccnc2n1Cc1ccc(F)cc1,–,inconclusive: -30.5% [inhibitor]
Cc1ccccc1-c1cc(=O)c2cc(NC(=O)C3CCCCC3)ccc2o1,"inconclusive: 15.8 µM [inhibitor, partial curve, poor fit]",–
CCOc1ccc(CC(=O)Nc2c(C(=O)c3ccc(C)cc3)oc3ccccc23)cc1OCC,"inconclusive: 25.1 µM [inhibitor, partial curve, poor fit]",–
Cc1ccccc1-c1onc(C)c1C(=O)NCc1ccc(Cl)cc1,–,inactive: 17%
CCc1ccccc1NC(=O)c1ccc2nc(CCc3ccccc3)oc2c1,"inconclusive: 28.2 µM [inhibitor, single point]",–
CCc1cc(C(=O)OC)c(N)s1,–,inactive: -9.77%
CCOc1cccc(CC(=O)N2CCc3c([nH]c4ccccc34)C2c2ccc(F)cc2)c1OCC (stereo unspecified),–,inactive: -19.1%
Cc1ccsc1-c1nc(CN(C)Cc2noc(C(C)C)n2)c(C)o1,"inconclusive: 22.4 µM [inhibitor, partial curve, poor fit]",–
C#CCN(C(=O)c1ccc(-c2cnco2)cc1)C1CCCCC1,–,inactive: -9.36%
Cc1cc(N2CCCCC2)nc2ccc(NC(=O)/C=C/c3ccccc3OC(C)C)cc12,"inconclusive: 31.6 µM [inhibitor, partial curve, poor fit]",–
CN(c1ccccc1)S(=O)(=O)c1ccc(C(=O)NCCc2ccc(F)cc2)cc1,"inconclusive: 35.5 µM [inhibitor, partial curve, poor fit]",–
Cc1cccc(CSc2cn(CC(=O)N3CCCC3)c3ccccc23)c1,"inconclusive: 5.62 µM [inhibitor, full curve, poor fit]",–
CCc1ccc(C(CNC(=O)c2nccnc2N)N(C)C)cc1 (stereo unspecified),"inconclusive: 25.1 µM [inhibitor, partial curve, poor fit]",–

# Source: PubChem BioAssay AID1347165 (National Center for Advancing Translational Sciences (NCATS), 2019)
